Measured values from patent US10759803B2, “Asparagine endopeptidase (AEP) inhibitors for managing cancer and compositions related thereto” (priority 2014, dated 2020).
Like-named read-outs stand apart in the source and are kept apart here.

Key:
Cathepsin-S = Cathepsin-S (Homo sapiens, UniProt P25774); experiment: Specificity assay against Cathepsin-S; format: biochemical
Protocol: (§1) Purified recombinant enzyme was incubated with various concentrations of inhibitor in appropriate assay buffers in the presence of increasing concentrations of inhibitor. The formation of fluorescent product was monitored in duplicate reactions and the data was fit to appropriate equations to calculate the IC50 values.
(§2) To identify small-molecule inhibitors of AEP, a high-throughput screen was designed in conjunction with the Emory Chemical Biology Discovery Center. The screen incorporated mouse kidney lysates to assay a 54,384 compound library. […] Additional structural analysis and grouping allowed the compounds to be sorted into 8 distinct backbone families. […] The specificity of the compounds was also determined using four major cysteine proteases (FIG. 2).

Cathepsin-L = Cathepsin-L (Homo sapiens, UniProt P07711); experiment: Specificity assay against Cathepsin-L; format: biochemical; details: one of the tested cysteine proteases
Caspase-3 = target: T1, Caspase-3 (Homo sapiens, UniProt P42574); experiment: Specificity assay against Caspase-3; format: biochemical; details: one of the tested cysteine proteases
T1 sequence (P42574 29-175 limits assumed): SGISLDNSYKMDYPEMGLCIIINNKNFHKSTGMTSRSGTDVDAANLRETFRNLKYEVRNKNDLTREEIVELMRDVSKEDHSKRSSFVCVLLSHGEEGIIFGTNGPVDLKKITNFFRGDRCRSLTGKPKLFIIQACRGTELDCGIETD
T1 sequence (P42574 176-277 limits assumed): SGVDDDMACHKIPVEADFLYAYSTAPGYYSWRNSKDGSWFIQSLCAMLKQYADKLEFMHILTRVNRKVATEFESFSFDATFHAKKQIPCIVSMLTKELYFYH
Protocol: as §1, §2

Caspase-8 = Caspase-8 (Homo sapiens, UniProt Q14790); experiment: Specificity assay against Caspase-8; format: biochemical; details: one of the tested cysteine proteases
Protocol: as §1, §2

AEP = target: T2, AEP (Homo sapiens, UniProt Q99538); experiment: SAR analysis, residual AEP activity; format: biochemical; details: 50 nM purified active AEP, 5 μM substrate peptide
T2 construct: tested with purified active AEP, IC50 values for the top 8 candidates were found
T2 sequence (Q99538 18-323 limits assumed): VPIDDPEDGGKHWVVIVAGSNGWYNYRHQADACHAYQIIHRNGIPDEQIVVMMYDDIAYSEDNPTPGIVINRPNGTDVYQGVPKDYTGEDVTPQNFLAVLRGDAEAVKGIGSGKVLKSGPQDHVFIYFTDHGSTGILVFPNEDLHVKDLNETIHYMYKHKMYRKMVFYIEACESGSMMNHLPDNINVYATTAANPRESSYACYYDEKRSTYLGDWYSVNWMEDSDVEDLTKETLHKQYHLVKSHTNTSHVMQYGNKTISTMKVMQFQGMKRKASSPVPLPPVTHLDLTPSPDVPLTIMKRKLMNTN
Excerpt: A. The structures and percentages of residual AEP activity of derivatives, in which substitutions were made to the nitrogen in the R7 position. B. The structures and percentages of residual AEP activity of the compound 38 derivatives, in which substitutions were made to the nitrogens at the R7 and R1 positions. C. The structures and percentages of residual AEP activity of the compound 38 derivatives, in which substitutions were made at the R7, R1 and R6 position in xanthine ring.
In an effort to improve the drug ability of the compound, structure-activity relationship studies were performed with various derivatives. Each compound was incubated with 50 nM purified, active AEP and 5 μM substrate peptide and the percentage of residual enzyme activity was calculated compared to a control reaction. […] Conversely, the observed alterations made to the thiol group of compound 38 had effects on its inhibitory activity (FIG. 9C).

[1] = system: endogenous MMP-2 cleavage; experiment: Gelatin zymography, endogenous MMP-2 cleavage in MDA-MB-231 cells; format: cell-based, human; details: MDA-MB-231 cells, 1, 2, 5 and 10 μM
[2] = system: MDA-MB-231 cells in the mammary fat pad of nude mice; experiment: In vivo spontaneous metastasis assay (breast-to-lung)
[3] = mouse, microsomes, 30 min
[4] = human, microsomes, 0.5 h

Sequence of Caspase-8 (Q14790 217-374 limits assumed, species assumed): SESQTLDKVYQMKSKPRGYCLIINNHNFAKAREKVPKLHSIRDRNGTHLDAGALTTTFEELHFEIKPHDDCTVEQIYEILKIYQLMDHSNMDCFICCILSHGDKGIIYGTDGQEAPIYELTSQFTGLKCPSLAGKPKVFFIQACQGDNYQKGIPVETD
Sequence of Caspase-8 (Q14790 385-479 limits assumed, species assumed): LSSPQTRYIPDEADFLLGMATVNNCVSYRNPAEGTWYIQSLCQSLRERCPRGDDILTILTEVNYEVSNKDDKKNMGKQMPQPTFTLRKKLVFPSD
Sequence of Cathepsin-S (P25774 115-331, species assumed): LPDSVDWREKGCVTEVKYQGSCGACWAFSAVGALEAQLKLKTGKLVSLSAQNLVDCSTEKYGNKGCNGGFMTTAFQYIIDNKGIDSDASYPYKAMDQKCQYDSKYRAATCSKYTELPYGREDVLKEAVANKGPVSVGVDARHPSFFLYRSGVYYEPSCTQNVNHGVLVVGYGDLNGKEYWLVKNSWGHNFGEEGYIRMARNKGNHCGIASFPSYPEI
Sequence of Cathepsin-L (P07711 114-333, species assumed): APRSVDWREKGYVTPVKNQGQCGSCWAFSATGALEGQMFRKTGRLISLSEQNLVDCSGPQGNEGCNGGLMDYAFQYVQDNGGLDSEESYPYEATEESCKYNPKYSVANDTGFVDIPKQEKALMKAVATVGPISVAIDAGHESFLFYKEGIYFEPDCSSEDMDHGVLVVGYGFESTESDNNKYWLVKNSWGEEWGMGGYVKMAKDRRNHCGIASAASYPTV

## CN(C)c1ccc(N2C(=O)C=CC2=O)cc1 [Compound 22]
Cathepsin-S
  IC50: > 100 µM
Cathepsin-L
  IC50: > 100 µM
Caspase-3
  IC50: > 100 µM
Caspase-8
  IC50: > 100 µM

## Cn1c(=O)[nH]c(=O)c2c1nc(S)n2CC(O)COc1ccccc1 (stereo not shown) [Compound 38D-11]
AEP
  loss of activity relative to parent compound 38: greater than a two-fold loss in activity

## CCn1c(=O)c2c(nc(S)n2C)n(C)c1=O [Compound 38D-21]
[1]
  endogenous MMP-2 cleavage: inhibited in a dose-dependent manner
[2]; 3 mg/kg
  animals in which metastasis was observed: 2/6
[2]; 3 mg/kg oral gavage, 42 days
  number of metastatic lung nodules: significantly decreased
  percentage of mice with metastatic nodules on their lungs: 33%
[2]; 10 mg/kg
  animals in which metastasis was observed: 1/6
[2]; 10 mg/kg oral gavage, 42 days
  number of metastatic lung nodules: almost completely prevented lung metastasis
  percentage of mice with metastatic nodules on their lungs: 17%
[2]; 3 or 10 mg/kg, 42 days
  complete blood count (CBC) vs vehicle: no significant difference
  mammary tumor weight or volume vs control: no significant difference
  size of the spleen: slight increase
  toxicity by body weight: no significant toxicity

## CC(=O)CC(c1ccccc1)c1c(O)c2ccccc2oc1=O (stereo not shown) [Warfarin]
[3]
  Mean Remaining Parent (NADPH-free): 100%
  Mean Remaining Parent (with NADPH): 91%
[4]
  Mean Remaining Parent (with NADPH): 96%
